# According to PMC4336329 (PLoS ONE, 2015):
# In all, about 310,000 compounds went through this assay and about 14,000 (4.5%) showed an effect of 50% or more. The effect is printed as a negative number. This is one part of the list.
# Target: human ether-à-go-go-related gene (hERG) potassium channel (human, UniProt Q12809)
# Experiment: primary screen, population patch clamp on CHO cells stably expressing hERG
# 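Further: peak tail current of the secondary pulse compared with the same well before compound.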
# human ether-à-go-go-related gene (hERG) potassium channel, sequence (Q12809 whole entry, looked up): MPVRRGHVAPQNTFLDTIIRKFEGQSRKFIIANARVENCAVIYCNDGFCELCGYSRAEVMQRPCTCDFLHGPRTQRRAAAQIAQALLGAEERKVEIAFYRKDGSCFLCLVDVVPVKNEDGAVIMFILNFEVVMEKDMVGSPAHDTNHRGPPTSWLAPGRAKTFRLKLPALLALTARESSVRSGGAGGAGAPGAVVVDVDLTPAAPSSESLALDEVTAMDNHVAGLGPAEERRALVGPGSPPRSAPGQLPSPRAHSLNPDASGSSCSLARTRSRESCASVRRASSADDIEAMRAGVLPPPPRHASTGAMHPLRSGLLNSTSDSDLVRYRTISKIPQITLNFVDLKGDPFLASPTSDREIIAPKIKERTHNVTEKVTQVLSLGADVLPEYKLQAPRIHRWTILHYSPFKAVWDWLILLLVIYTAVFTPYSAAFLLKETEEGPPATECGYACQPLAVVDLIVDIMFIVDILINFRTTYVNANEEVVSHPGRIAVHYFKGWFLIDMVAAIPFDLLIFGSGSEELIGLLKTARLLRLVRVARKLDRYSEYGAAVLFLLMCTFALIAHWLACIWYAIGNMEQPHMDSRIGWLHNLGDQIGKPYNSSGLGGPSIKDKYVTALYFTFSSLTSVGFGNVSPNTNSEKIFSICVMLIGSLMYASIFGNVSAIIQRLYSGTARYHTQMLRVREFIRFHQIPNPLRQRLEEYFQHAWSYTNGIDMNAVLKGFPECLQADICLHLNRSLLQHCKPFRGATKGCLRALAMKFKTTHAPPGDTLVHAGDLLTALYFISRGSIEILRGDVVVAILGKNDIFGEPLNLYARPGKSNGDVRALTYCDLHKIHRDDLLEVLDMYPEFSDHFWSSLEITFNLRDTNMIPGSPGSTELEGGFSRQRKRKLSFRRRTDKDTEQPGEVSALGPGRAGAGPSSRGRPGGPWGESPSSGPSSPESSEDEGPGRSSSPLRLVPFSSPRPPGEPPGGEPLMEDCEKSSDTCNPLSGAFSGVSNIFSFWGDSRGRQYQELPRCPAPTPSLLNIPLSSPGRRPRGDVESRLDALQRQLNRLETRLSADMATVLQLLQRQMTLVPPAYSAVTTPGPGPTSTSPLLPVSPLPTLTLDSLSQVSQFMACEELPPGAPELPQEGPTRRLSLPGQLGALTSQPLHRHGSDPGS
row,SMILES,"hERG current change (%, negative = inhibition) at 10uM"
1,CCC(C)NC(=O)CSc1ccc(S(=O)(=O)N2CCN(Cc3ccccc3)CC2)cn1 (stereo not drawn),-16.6%
2,CCCCn1c(-c2cc(Cl)ccc2OC)n[nH]c1=S,22.6%
3,Cc1ccc(NC(=O)C2C3CCCCC32)cc1[N+](=O)[O-] (stereo not drawn),14.4%
4,Cc1ccc(OC(=O)NC2CCS(=O)(=O)C2)cc1C (stereo not drawn),2.78%
5,CCOP(=O)(c1c(F)c(F)c(F)c(F)c1F)C(O)c1ccccc1 (stereo not drawn),6.67%
6,Cn1c(=O)c2c(ncn2CC(=O)OCC(=O)Nc2cccc(Cl)c2)n(C)c1=O,-15.1%
7,Cc1ccc(S(=O)(=O)c2nc(S(C)(=O)=O)sc2N2CCC3(CC2)OCCO3)cc1,-34.3%
8,COc1cc(/C=N/N2CCN(Cc3ccccc3)CC2)cc(OC)c1OC(C)=O,-0.04%
9,COc1ccc(CNC(=O)CCn2nc(C)c3c(C)n(-c4ccccc4)nc3c2=O)c(OC)c1,11.8%
10,COc1ccc(C(=O)/C=C/c2ccc(OC)cc2OC)c(O)c1,1.75%
11,Cc1cccn2cc(CSc3nnc(Nc4ccc(C(C)C)cc4)s3)nc12,8.83%
12,COc1ccc(N2CCN(C(c3cc(OC)ccc3OC)c3nnnn3Cc3ccco3)CC2)cc1.Cl (stereo not drawn),-8.07%
13,CCOC(=O)C1CCN(C(=O)CCc2ccc(S(=O)(=O)NCC(C)C)cc2)CC1,8.81%
14,CCOC(=O)N1CCN(C(=O)c2ccc(N3C(=O)c4ccccc4C3=O)cc2)CC1,-11.3%
15,Cc1ccc(CN2CCC(CNC(=O)Nc3ccccc3F)CC2)cc1,-69.7%
16,O=C(CSc1nnc(-c2ccco2)n1-c1ccccc1)N1CCOCC1,2.92%
17,O=[N+]([O-])c1ccc(NC(=S)NCCc2ccccc2)cc1,-2.15%
18,COc1ccccc1C(CNC(=O)COc1cc(C)ccc1Cl)N1CCCC1 (stereo not drawn),-32.4%
19,CC(=O)c1cccc(NC(=O)CSc2nc(=O)n(CCN3CCOCC3)c3c2CCC3)c1,-17.6%

row,SMILES,"hERG current change (%, negative = inhibition) at 10uM"
1,CCOC(=O)N1CCN(S(=O)(=O)c2ccc(C(=O)NNc3nc4c(C)cc(C)cc4s3)cc2)CC1,4.36%
2,CN1C(=O)CC(C(=O)Nc2ccccc2F)SC1=Nc1ccc2c(c1)OCO2 (stereo not drawn),14.7%
3,COC(=O)c1ccc(-c2ncc(-c3cccc4ccccc34)o2)cc1,14.4%
4,CCOC(=O)C1=C(NC(=S)NC(=O)c2ccccc2)c2ccccc2CC1(C)C,-18.4%
5,NC(N)=N/N=C/c1c(Cl)cccc1Cl,-10.3%
6,Cc1c(C(=O)O)sc2nc(SCC(=O)Nc3ccc(S(=O)(=O)NCCCC(=O)O)cc3)[nH]c(=O)c12,9.34%
7,CCc1oc(C(=O)O)cc1CN(CC)CC.Cl,11.9%
8,COc1ccc(C2CC(C(F)(F)F)n3nc(C(=O)Nc4ccc5c(c4)OCO5)cc3N2)cc1 (stereo not drawn),10.5%
9,COc1ccc(NC(C#N)c2ccccc2OCc2ccccc2)cc1 (stereo not drawn),1.21%
10,Cc1cccc(NCc2ccccc2O)c1,7.25%
11,O=C1CC(N2CCOCC2)C(=O)N1c1ccc(Cl)cc1 (stereo not drawn),0.986%
12,CC(C)(C)S(=O)(=O)c1cnc2c(-c3ccc(Cl)cc3)cnn2c1N,7.81%
13,CC12CCCCC1=NC(c1ccc(Br)cc1)N2O (stereo not drawn),-9.79%
14,S=c1[nH]nc(-c2ccccc2)n1/N=C/c1cccs1,-3.65%
15,CCn1c(SCC(=O)Nc2nccs2)nnc1-c1ccccc1,-3.57%
16,COc1ccc(NC(C)=O)cc1S(=O)(=O)Nc1ccc(OCc2ccccc2)cc1,17.2%
17,CC(=O)N1CCOc2ccc(S(=O)(=O)N3CC(C)CC(C)C3)cc21 (stereo not drawn),-14.8%
18,CCOC(=O)c1sc2cccc(Cl)c2c1N,4.12%
19,CCn1c(SCC(=O)N2CCCc3ccccc32)nc2c1c(=O)n(C)c(=O)n2C,-10.6%

row,SMILES,"hERG current change (%, negative = inhibition) at 10uM"
1,COc1c(Cl)cc(Cl)cc1CNCCO.Cl,-4.18%
2,CCOc1ccc(Oc2cc(N)cc([N+](=O)[O-])c2)cc1,-14.5%
3,CN1C(=O)C(C)(C)c2cc(S(=O)(=O)N3CCCC3C(=O)NCc3ccc(F)cc3)ccc21 (stereo not drawn),-1.37%
4,CCOc1ccc(C(=O)C(c2ccccc2)N2CCOCC2)cc1.Cl (stereo not drawn),-10.4%
5,Cc1ccc(NC(=O)CN2C(=O)c3ccccc3C2=O)cc1,19.9%
6,O=C(Nc1cccc(-c2cn3ccccc3n2)c1)c1cc2ccccc2oc1=O,15.1%
7,COc1ccc2c(=O)c3c(=O)n(Cc4ccco4)c(-c4ccccc4)nc3oc2c1,-32.2%
8,COc1cccc(C2=NOC(C(=O)NC(C)(C)C)C2)c1 (stereo not drawn),9.93%
9,C=CCNC(=S)NCC1COc2ccccc2O1 (stereo not drawn),19.6%
10,O=C(c1ccc(=O)n(Cc2ccccc2)n1)N1CCN(C/C=C/c2ccccc2)CC1,-51.9%
11,COc1ccccc1NC(=O)Cn1cnc2c(nnn2-c2ccc(C)cc2)c1=O,5.06%
12,Cc1ccc(OCc2cc(C(=O)N3CCN(C)C[C@@H]3c3ccccc3)no2)cc1C,-19.4%
13,CC(C)OC(=O)Cn1c(=O)oc2ccccc21,7.64%
14,Cc1ccc(C(=O)N/C(=C\c2ccc(C)o2)C(=O)O)cc1,10.8%
15,Cl.SC(COCc1ccccc1)CN1CCN(Cc2ccc3c(c2)OCO3)CC1 (stereo not drawn),-11.6%
16,O=C(CN1CCCC1)N/N=C/c1ccc(-c2cccc(Cl)c2)o1,-62.2%
17,CC1SC(c2ccccc2Cl)NC1=O (stereo not drawn),20.1%
18,CC(C)N(C(=S)NC1CCCCC1)c1ccccc1,16.8%
19,CCOC(=O)C1CCN(S(=O)(=O)c2ccc3[nH]c(=O)ccc3c2)CC1,-45.3%
